In the supplement of paper PMC4967469:
IC50 is the fitted dose that halves viability relative to control wells, and lower means more sensitive; a fit beyond the top or the lowest dose is shown as a bound at that dose. AUC sums up the same curve from the lowest dose to the 256-fold higher top dose: 1 means no effect, lower means more sensitive. The top dose, if marked as inferred, was derived from the fitted curves, not read from the paper. For some of these results: An entry number marks a drug with two screens in the source, which often give different values.

compound: CC(C)=CC[C@@H](O)C1=CC(=O)c2c(O)ccc(O)c2C1=O [Shikonin]; test: Viability of human cancer cell lines after 72 h of drug (GDSC screen); conditions: top dose 16 µM; top dose inferred
Method: (§1)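 Human cancer cell lines in 384-well plates, medium with 10% serum, drug for 72 h over a 256-fold dose range (nine 2-fold or five 4-fold steps up to the top dose). Adherent lines were fixed and stained with the nucleic acid dye Syto60, suspension lines read with resazurin; signal relative to control wells, capped at 0 and 100%. One two-parameter sigmoid per drug and line, fitted in a mixed model over all curves with the slope shared within a line.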

Cell Line | AUC | IC50
FADU (head and neck, adherent) | 0.513 | 1.08 µM
FTC-133 (thyroid, adherent) | 0.637 | 2.48 µM
G-401 (kidney, adherent) | 0.36 | 0.393 µM
H513 (mesothelioma, semi-adherent) | 0.899 | > 16 µM
H2369 (mesothelioma, adherent) | 0.568 | 1.55 µM
H2461 (mesothelioma, adherent) | 0.802 | 10.2 µM
H2595 (mesothelioma, adherent) | 0.697 | 4.51 µM
H2731 (mesothelioma, adherent) | 0.845 | 14.2 µM
H2795 (mesothelioma, adherent) | 0.796 | 7.39 µM
H2869 (mesothelioma, adherent) | 0.471 | 0.816 µM
HCC38 (breast, adherent) | 0.5 | 1 µM
HCC1419 (breast, adherent) | 0.581 | 1.82 µM
HCC1428 (breast, adherent) | 0.772 | 6.78 µM
HCC1569 (breast, adherent) | 0.46 | 0.751 µM
HCC1954 (breast, adherent) | 0.424 | 0.598 µM
HCC-56 (large intestine, adherent) | 0.599 | 1.88 µM
HCC-78 (lung adenocarcinoma, adherent) | 0.76 | 6.56 µM

compound: CNC(=O)c1ccc(Nc2cc(Nc3ccccc3S(=O)(=O)C(C)C)c3cc[nH]c3n2)nc1 [HG-5-113-01]; test: as above; conditions: top dose 10 µM; top dose inferred
Method: as §1

Cell Line | AUC | IC50
CHSA8926 (chondrosarcoma, adherent) | 0.782 | 6.15 µM
COR-L23 (large cell lung carcinoma, adherent) | 0.781 | 4.04 µM
CP50-MEL-B (melanoma, adherent) | 0.728 | 2.76 µM
CS1 (bone, adherent) | 0.824 | 6.87 µM
CaR-1 (large intestine, adherent) | 0.704 | 3.17 µM
Calu-3 (lung adenocarcinoma, adherent) | 0.853 | > 10 µM
Capan-2 (pancreas, adherent) | 0.768 | 4.53 µM
DBTRG-05MG (glioma, adherent) | 0.731 | 3.24 µM
DMS-273 (small cell lung carcinoma, adherent) | 0.77 | 4.03 µM
DOK (head and neck, adherent) | 0.751 | 4.9 µM
EN (endometrium, adherent) | 0.892 | > 10 µM
ESS-1 (endometrium, adherent) | 0.815 | 4.81 µM
EW-7 (Ewing sarcoma, semi-adherent) | 0.707 | 2.2 µM
FADU (head and neck, adherent) | 0.687 | 2.04 µM
FTC-133 (thyroid, adherent) | 0.818 | 6.36 µM
G-401 (kidney, adherent) | 0.78 | 4.54 µM
H513 (mesothelioma, semi-adherent) | 0.926 | > 10 µM
H2369 (mesothelioma, adherent) | 0.829 | 6.53 µM
H2461 (mesothelioma, adherent) | 0.776 | 5.05 µM
H2595 (mesothelioma, adherent) | 0.844 | > 10 µM
H2731 (mesothelioma, adherent) | 0.792 | 5.27 µM
H2795 (mesothelioma, adherent) | 0.792 | 4.47 µM
H2869 (mesothelioma, adherent) | 0.898 | > 10 µM
HCC38 (breast, adherent) | 0.862 | 9.68 µM
HCC1419 (breast, adherent) | 0.943 | > 10 µM
HCC1428 (breast, adherent) | 0.931 | > 10 µM
HCC1569 (breast, adherent) | 0.863 | > 10 µM
HCC1954 (breast, adherent) | 0.887 | > 10 µM
HCC-56 (large intestine, adherent) | 0.71 | 2.5 µM
HCC-78 (lung adenocarcinoma, adherent) | 0.7 | 2.54 µM

compound: O=C(c1cc(Cc2n[nH]c(=O)c3ccccc23)ccc1F)N1CCN(C(=O)C2CC2)CC1 [Olaparib]; test: as above; conditions: top dose 5 µM; screen: GDSC drug entry 1017; top dose inferred
Method: as §1

Cell Line | AUC | IC50
CHSA8926 (chondrosarcoma, adherent) | 0.957 | > 5 µM
COR-L23 (large cell lung carcinoma, adherent) | 0.964 | > 5 µM
CP50-MEL-B (melanoma, adherent) | 0.986 | > 5 µM
CS1 (bone, adherent) | 0.934 | > 5 µM
CaR-1 (large intestine, adherent) | 0.965 | > 5 µM
Calu-3 (lung adenocarcinoma, adherent) | 0.98 | > 5 µM
Capan-2 (pancreas, adherent) | 0.985 | > 5 µM
DBTRG-05MG (glioma, adherent) | 0.98 | > 5 µM
DMS-273 (small cell lung carcinoma, adherent) | 0.947 | > 5 µM
DOK (head and neck, adherent) | 0.89 | > 5 µM
EN (endometrium, adherent) | 0.984 | > 5 µM
ESS-1 (endometrium, adherent) | 0.975 | > 5 µM
EW-7 (Ewing sarcoma, semi-adherent) | 0.964 | > 5 µM
FADU (head and neck, adherent) | 0.988 | > 5 µM
FTC-133 (thyroid, adherent) | 0.981 | > 5 µM
G-401 (kidney, adherent) | 0.932 | > 5 µM
H513 (mesothelioma, semi-adherent) | 0.986 | > 5 µM
H2369 (mesothelioma, adherent) | 0.986 | > 5 µM
H2461 (mesothelioma, adherent) | 0.977 | > 5 µM
H2595 (mesothelioma, adherent) | 0.93 | > 5 µM
H2731 (mesothelioma, adherent) | 0.984 | > 5 µM
H2795 (mesothelioma, adherent) | 0.865 | 4.31 µM
H2869 (mesothelioma, adherent) | 0.981 | > 5 µM
HCC38 (breast, adherent) | 0.986 | > 5 µM
HCC1419 (breast, adherent) | 0.982 | > 5 µM
HCC1428 (breast, adherent) | 0.977 | > 5 µM
HCC1569 (breast, adherent) | 0.981 | > 5 µM
HCC1954 (breast, adherent) | 0.971 | > 5 µM
HCC-56 (large intestine, adherent) | 0.987 | > 5 µM
HCC-78 (lung adenocarcinoma, adherent) | 0.966 | > 5 µM

same assay, conditions: top dose 10 µM; screen: GDSC drug entry 1495

Cell Line | AUC | IC50
CHSA8926 (chondrosarcoma, adherent) | 0.911 | > 10 µM
COR-L23 (large cell lung carcinoma, adherent) | 0.946 | > 10 µM
CP50-MEL-B (melanoma, adherent) | 0.987 | > 10 µM
CS1 (bone, adherent) | 0.92 | > 10 µM
Calu-3 (lung adenocarcinoma, adherent) | 0.955 | > 10 µM
Capan-2 (pancreas, adherent) | 0.983 | > 10 µM
DBTRG-05MG (glioma, adherent) | 0.959 | > 10 µM
DOK (head and neck, adherent) | 0.941 | > 10 µM
EN (endometrium, adherent) | 0.96 | > 10 µM
ESS-1 (endometrium, adherent) | 0.937 | > 10 µM
EW-7 (Ewing sarcoma, semi-adherent) | 0.824 | 5.02 µM
FTC-133 (thyroid, adherent) | 0.976 | > 10 µM
G-401 (kidney, adherent) | 0.924 | > 10 µM
H513 (mesothelioma, semi-adherent) | 0.971 | > 10 µM
H2369 (mesothelioma, adherent) | 0.932 | > 10 µM
H2461 (mesothelioma, adherent) | 0.88 | > 10 µM
H2595 (mesothelioma, adherent) | 0.968 | > 10 µM
H2731 (mesothelioma, adherent) | 0.982 | > 10 µM
H2795 (mesothelioma, adherent) | 0.954 | > 10 µM
H2869 (mesothelioma, adherent) | 0.948 | > 10 µM
HCC38 (breast, adherent) | 0.97 | > 10 µM
HCC1419 (breast, adherent) | 0.98 | > 10 µM
HCC1428 (breast, adherent) | 0.971 | > 10 µM
HCC1569 (breast, adherent) | 0.906 | > 10 µM
HCC1954 (breast, adherent) | 0.965 | > 10 µM
HCC-56 (large intestine, adherent) | 0.986 | > 10 µM
HCC-78 (lung adenocarcinoma, adherent) | 0.913 | > 10 µM

compound: O=C1NC(=O)c2c1c(-c1ccccc1Cl)cc1[nH]c3ccc(O)cc3c21 [Wee1 inhibitor 681640]; test: as above; conditions: top dose 2 µM; top dose inferred
Method: as §1

Cell Line | AUC | IC50
CHSA8926 (chondrosarcoma, adherent) | 0.98 | > 2 µM
COR-L23 (large cell lung carcinoma, adherent) | 0.849 | 1.45 µM
CP50-MEL-B (melanoma, adherent) | 0.988 | > 2 µM
CS1 (bone, adherent) | 0.835 | 1.53 µM
CaR-1 (large intestine, adherent) | 0.903 | > 2 µM
Calu-3 (lung adenocarcinoma, adherent) | 0.978 | > 2 µM
Capan-2 (pancreas, adherent) | 0.982 | > 2 µM
DBTRG-05MG (glioma, adherent) | 0.946 | > 2 µM
DMS-273 (small cell lung carcinoma, adherent) | 0.972 | > 2 µM
DOK (head and neck, adherent) | 0.811 | 1.82 µM
EN (endometrium, adherent) | 0.983 | > 2 µM
ESS-1 (endometrium, adherent) | 0.902 | > 2 µM
EW-7 (Ewing sarcoma, semi-adherent) | 0.977 | > 2 µM
FADU (head and neck, adherent) | 0.928 | > 2 µM
FTC-133 (thyroid, adherent) | 0.887 | > 2 µM
G-401 (kidney, adherent) | 0.927 | > 2 µM
H513 (mesothelioma, semi-adherent) | 0.98 | > 2 µM
H2369 (mesothelioma, adherent) | 0.931 | > 2 µM
H2461 (mesothelioma, adherent) | 0.983 | > 2 µM
H2595 (mesothelioma, adherent) | 0.978 | > 2 µM
H2731 (mesothelioma, adherent) | 0.952 | > 2 µM
H2795 (mesothelioma, adherent) | 0.963 | > 2 µM
H2869 (mesothelioma, adherent) | 0.98 | > 2 µM
HCC38 (breast, adherent) | 0.919 | > 2 µM
HCC1419 (breast, adherent) | 0.905 | > 2 µM
HCC1428 (breast, adherent) | 0.967 | > 2 µM
HCC1569 (breast, adherent) | 0.844 | > 2 µM
HCC1954 (breast, adherent) | 0.868 | > 2 µM
HCC-56 (large intestine, adherent) | 0.914 | > 2 µM
HCC-78 (lung adenocarcinoma, adherent) | 0.907 | > 2 µM
